# From the supplement of paper PMC9135407
# Values joined by “and” are separate entries in the source; they are usually repeats but may differ in a detail not shown here. Equal values may be shown once. Where a name gives a salt, the structure may show the parent alone. The campaign covered roughly 5,800 compounds. About 620 (11%) showed activity.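 Rule for the calls: active = score above a cut-off or among the top three wells of a plate; in these data no inactive exceeds 0.85.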 This is a selection; strong and weak results do not stand in their true shares.
# System: primary human hepatic stellate cells (donor 1)
# Assay: scaled lipid accumulation score (0 = DMSO-like, 1 = nortriptyline-like); higher = stronger HSC inactivation (lipid re-accumulation), active = hit call of the paper
# Settings: 48 h
# Protocol: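 Primary lipid accumulation screen in primary human hepatic stellate cell myofibroblasts (donor 1, passage 8) in 384-well plates. 100 nL of library compound was pin-transferred into 30 µL medium in duplicate, and cells were treated for 48 h. The 'Scaled' score combines distance from plate baseline, toxicity and reproducibility penalties, and is normalised to nortriptyline (positive) and DMSO (negative) controls on each plate. A hit is defined as scaled >0.85 or among the top 3 wells per plate.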
# [1] = library stock concentration: 10 mM
# [2] = library stock concentration: 80 uM
# [3] = library stock concentration: 400 uM
# [4] = library stock concentration: 2 mM
# [5] = library stock concentration: 3.33 mM
# [6] = library stock concentration: 1 mM
# [7] = library stock concentration: 100 uM
smiles,measurement,setting,value
OC[C@@H](O)[C@@H](O[C@@H]1O[C@H](CO)[C@H](O)[C@H](O)[C@H]1O)[C@H](O)[C@@H](O)CO,scaled lipid accumulation score,[1],inactive: ≤ 0
Cn1cc(-c2ccc3nnc(C(F)(F)c4ccc5ncccc5c4)n3n2)cn1,scaled lipid accumulation score,[2],inactive: ≤ -0.009
same,scaled lipid accumulation score,[3],inactive: ≤ -0.009 and inactive: ≤ -0.005
same,scaled lipid accumulation score,[4],inactive: 0.006 and inactive: ≤ -0.005
same,scaled lipid accumulation score,[5],inactive: ≤ 0
same,scaled lipid accumulation score,[1],inactive: ≤ 0 and inactive: 0.023 and inactive: ≤ -0.005
c1ccc2[nH]c(-c3cscn3)nc2c1 [Tiabendazole],scaled lipid accumulation score,,inactive: ≤ 0
c1ccc2[nH]c(-c3cscn3)nc2c1 [Thiabendazole],scaled lipid accumulation score,[5],inactive: 0.054
same,scaled lipid accumulation score,library stock concentration: 9.9 mM,inactive: ≤ 0
same,scaled lipid accumulation score,[1],inactive: ≤ 0
c1ccc2[nH]c(-c3cscn3)nc2c1,scaled lipid accumulation score,[1],inactive: ≤ 0
CCC(CC)CC1(C(=O)Nc2ccccc2SC(=O)C(C)C)CCCCC1,scaled lipid accumulation score,[5],inactive: ≤ 0
same,scaled lipid accumulation score,[1],inactive: ≤ 0
CCCCCCCCCCCC1N[C@H](C(=O)O)CS1 (some centres not stated),scaled lipid accumulation score,[6],inactive: ≤ 0
CC(CN(C)C)CN1c2ccccc2CCc2ccccc21.O=C(O)/C=C\C(=O)O (configuration not stated) [Trimipramine maleate],scaled lipid accumulation score,[1],active: 0.877
CSc1nc(N)c2ncn([C@@H]3O[C@H](COP(=O)(O)OP(=O)(O)OP(=O)(O)O)[C@H](O)C3O)c2n1 (some centres not stated) [2-Methylthioadenosine triphosphate tetrasodium],scaled lipid accumulation score,[1],inactive: ≤ 0
"CC(=O)C(C)=O [2,3-Butanedione]",scaled lipid accumulation score,[1],inactive: 0.008
CCCC[C@H](C)C[C@H](O)/C=C/[C@H]1[C@H](O)CC(=O)[C@@H]1CCCCC(CC(=O)O)OC (some centres not stated) [3-methoxy Limaprost],scaled lipid accumulation score,[6],inactive: 0.012
CC1CS(=O)(=O)CCN1/N=C/c1ccc([N+](=O)[O-])o1 (configuration not stated) [Nifurtimox],scaled lipid accumulation score,,inactive: ≤ 0
CCCCC/C=C\CC1OC1C/C=C\C/C=C\CCCC(=O)O (configuration not stated),scaled lipid accumulation score,[7],inactive: ≤ -0.021
CC1(C)[C@H]2CC[C@]1(CS(=O)(=O)O)C(=O)C2=Cc1ccc(C=C2C(=O)[C@@]3(CS(=O)(=O)O)CC[C@@H]2C3(C)C)cc1,scaled lipid accumulation score,[1],inactive: ≤ 0
CCOC(=O)c1ncc2[nH]c3cccc(OC(C)C)c3c2c1C,scaled lipid accumulation score,[1],inactive: 0.014
COC1=C2C[C@@H](C)C[C@H](OC)[C@H](O)[C@@H](C)/C=C(\C)[C@H](OC(N)=O)[C@@H](OC)/C=C\C=C(/C)C(=O)NC(=CC1=O)C2=O [Geldanamycin],scaled lipid accumulation score,[5],inactive: 0.54
same,scaled lipid accumulation score,library stock concentration: 8.9 mM,inactive: 0.573
same,scaled lipid accumulation score,[1],inactive: 0.493
NC(=O)NC(=O)Cc1ccccc1 [Phenacemide],scaled lipid accumulation score,[1],inactive: ≤ 0
COc1ccc(C(=O)c2ccc(C)cc2)c(O)c1,scaled lipid accumulation score,[1],inactive: ≤ 0
COc1ccc(-c2cc(=O)c3c(O)cc(O[C@@H]4O[C@H](CO[C@@H]5O[C@@H](C)[C@H](O)[C@@H](O)[C@H]5O)[C@@H](O)[C@H](O)[C@H]4O)cc3o2)cc1O [Diosmin],scaled lipid accumulation score,[5],inactive: ≤ 0
same,scaled lipid accumulation score,[1],inactive: ≤ 0 and inactive: 0.011
COc1cc(Nc2ncc(F)c(Nc3ccc4c(n3)N(COP(=O)(O)O)C(=O)C(C)(C)O4)n2)cc(OC)c1OC [Fostamatinib (R788)],scaled lipid accumulation score,[5],inactive: 0.198
CN(C)CCC(c1ccc(Cl)cc1)c1ccccn1.O=C(O)/C=C\C(=O)O (configuration not stated),scaled lipid accumulation score,[1],active: 0.891
CCCCCCCC/C=C\CCCCCCCCCCCCCC(=O)N[C@@H](CO)[C@H](O)/C=C/CCCCCCCCCCCCC [Nervonic Ceramide],scaled lipid accumulation score,[6],inactive: 0.002
CN(C)CCC=C1c2ccccc2CCc2ccccc21.Cl [Amitriptyline HCl],scaled lipid accumulation score,[1],active: 0.863
"N#Cc1cc([N+](=O)[O-])c2sc(C(N)=O)[n+]([O-])c2c1 [Polo-like Kinase Inhibitor II, BTO-1]",scaled lipid accumulation score,[5],inactive: ≤ 0
O=C(Nc1ccc2c(c1)CCN(Cc1ncn[nH]1)C2)c1ccccc1-c1ccc(C(F)(F)F)cc1,scaled lipid accumulation score,[1],inactive: ≤ 0
Cn1c(=O)cc(N2CCC[C@@H](N)C2)n(Cc2ccccc2C#N)c1=O [Alogliptin],scaled lipid accumulation score,[5],inactive: ≤ 0
same,scaled lipid accumulation score,[1],inactive: ≤ 0
Cc1ccc(NC(=O)C(C)C)cc1C1CCN(Cc2ccc(Oc3ccc(F)c(F)c3)cc2)CC1.Cl,scaled lipid accumulation score,[1],active: 1.29
CCCCCCCN(CC)CCCC(O)c1ccc(NS(C)(=O)=O)cc1 (configuration not stated) [Ibutilide Fumarate],scaled lipid accumulation score,[5],inactive: 0.058
same,scaled lipid accumulation score,[1],inactive: 0.25
O=C(O)CCC(=O)Nc1ccc(S(=O)(=O)Nc2nccs2)cc1 [Succinylsulfathiazole],scaled lipid accumulation score,,inactive: ≤ 0
same,scaled lipid accumulation score,[1],inactive: ≤ 0
O=C(O)CCn1c2c(c3ccccc31)C[C@H](NS(=O)(=O)c1ccc(F)cc1)CC2,scaled lipid accumulation score,[6],inactive: ≤ 0
COc1cnc(NS(=O)(=O)c2ccc(N)cc2)nc1 [Sulfameter],scaled lipid accumulation score,,inactive: ≤ 0
same,scaled lipid accumulation score,[5],inactive: ≤ 0
same,scaled lipid accumulation score,library stock concentration: 7.1 mM,inactive: ≤ 0
same,scaled lipid accumulation score,[1],inactive: 0.067 and inactive: ≤ 0
Cc1cccc(CN2CCN(C(c3ccccc3)c3ccc(Cl)cc3)CC2)c1 (configuration not stated) [Meclozine dihydrochloride],scaled lipid accumulation score,,inactive: 0.368
Cc1cccc(CN2CCN(C(c3ccccc3)c3ccc(Cl)cc3)CC2)c1 (configuration not stated) [Meclizine hydrochloride],scaled lipid accumulation score,[1],inactive: 0.376 and inactive: 0.485
Cn1cnnc1Sc1c([N+](=O)[O-])ncn1C,scaled lipid accumulation score,[1],inactive: 0.013
CNCCC(Oc1ccccc1OC)c1ccccc1 (configuration not stated) [Nisoxetine hydrochloride],scaled lipid accumulation score,,inactive: 0.246
same,scaled lipid accumulation score,[1],inactive: 0.751 and inactive: 0.328
COc1ccccc1O [Guaiacol],scaled lipid accumulation score,library stock concentration: 16.1 mM,inactive: ≤ -0.006
CCCC1([C@H](O)C/C=C/[C@H]2[C@H](O)CC(=O)[C@@H]2CCCCCCC(=O)OC)CCC1 [Butaprost],scaled lipid accumulation score,[6],inactive: ≤ 0
CC1CNCCN1S(=O)(=O)c1cccc2cnccc12 (configuration not stated),scaled lipid accumulation score,[1],inactive: 0.081
COc1cc(CCC(C)=O)ccc1O [Vanillylacetone],scaled lipid accumulation score,[5],inactive: ≤ 0
same,scaled lipid accumulation score,[1],inactive: ≤ 0
CC12CC3CC(C)(C1)CC(N)(C3)C2.Cl [Memantine hydrochloride],scaled lipid accumulation score,[1],active: 1.05
CC(=O)OCC(=O)[C@@]1(O)CC[C@H]2[C@@H]3C[C@H](C)C4=CC(=O)C=C[C@]4(C)[C@H]3[C@@H](O)C[C@@]21C,scaled lipid accumulation score,[1],inactive: ≤ 0
Cl.O=S(=O)(c1cccc2c(Cl)cccc12)N1CCCNCC1 [ML 9 hydrochloride],scaled lipid accumulation score,[1],active: 0.941
CCCCCCCCCCCCCCCNC(=O)C1CCCCC1 [N-Cyclohexanecarbonylpentadecylamine],scaled lipid accumulation score,[6],inactive: ≤ 0
CC1CN(S(=O)(=O)c2cccc3cnccc23)CCN1 (configuration not stated),scaled lipid accumulation score,[1],inactive: 0.164
CCOC(=O)C1=C[C@]2(CC)CCCN3CCc4c(n1c1ccccc41)[C@@H]32 [Vinpocetine],scaled lipid accumulation score,,inactive: 0.008
same,scaled lipid accumulation score,library stock concentration: 5.7 mM,inactive: 0.199 and inactive: ≤ 0
same,scaled lipid accumulation score,[1],inactive: ≤ 0 and inactive: 0.413
same,scaled lipid accumulation score,library stock concentration: 14.3 mM,inactive: ≤ -0.021
CC(=O)c1cc2c(cc1O)OC(C)(C)C=C2 [Eupatoriochromene],scaled lipid accumulation score,[1],inactive: 0.066
CCCCC/C=C\C\C=C/C=C/C=C/[C@@H](SC[C@H](NC(=O)CC[C@H](N)C(=O)O)C(=O)NCC(=O)O)[C@@H](O)CCCC(=O)O [Leukotriene C4],scaled lipid accumulation score,[7],inactive: ≤ -0.021
COc1cc(C(=O)NC2CCCNC2)cc(OC)c1OC (configuration not stated) [Troxipide],scaled lipid accumulation score,[5],inactive: ≤ 0
same,scaled lipid accumulation score,[1],inactive: ≤ -0.001
O=c1c2sc(-c3ccc(F)cc3)cc2ncn1Cc1nc2ccccc2[nH]1,scaled lipid accumulation score,[1],active: 0.756
COC(=O)c1c(-c2cc(OC)c(OC)c(OC)c2)c2ccnc(OCc3ncccn3)c2c(=O)n1Cc1ccnc(C)c1 [T 0156 hydrochloride],scaled lipid accumulation score,[1],inactive: ≤ -0.006
c1ccc(N2CCN(Cc3nc4ccccc4[nH]3)CC2)nc1 [ABT 724 trihydrochloride],scaled lipid accumulation score,[1],inactive: ≤ -0.001
C[C@]12CC[C@@H]3c4ccc(O)cc4CC[C@H]3[C@@H]1CCC2=O [Estrone],scaled lipid accumulation score,,inactive: ≤ 0
same,scaled lipid accumulation score,[5],inactive: ≤ 0
same,scaled lipid accumulation score,[1],inactive: ≤ 0 and inactive: ≤ -0.013
"CCCCC[C@H](O)/C=C/[C@H]1[C@H](O)CC(=O)[C@@H]1CCCCCCCCC(=O)O [1a,1b-dihomo Prostaglandin E1]",scaled lipid accumulation score,[6],inactive: ≤ 0
Nc1ncnc2c1c(-c1cccc(OCc3ccccc3)c1)cn2C1CC(CN2CCC2)C1 (configuration not stated),scaled lipid accumulation score,[2],inactive: 0.167
same,scaled lipid accumulation score,[3],inactive: 0.351
same,scaled lipid accumulation score,[4],inactive: 0.67
same,scaled lipid accumulation score,[1],inactive: 0.657
c1cc(OCCN2CCCCC2)cc(-c2n[nH]c3ccc(-c4ncn[nH]4)cc23)c1,scaled lipid accumulation score,[1],active: 1.72
CCCCCCCCc1ccc(CCC(N)(CO)CO)cc1,scaled lipid accumulation score,[6],inactive: 0.527
CCCCCCCCc1ccc(CCC(N)(CO)CO)cc1 [Fingolimod (FTY720) HCl],scaled lipid accumulation score,[1],inactive: 0.376
CCCCCCCC/C=C\CCCCCCCC(=O)NCCc1ccc(O)c(O)c1 [N-Oleoyldopamine],scaled lipid accumulation score,[1],inactive: ≤ 0
CCCCCCCC/C=C\CCCCCCCC(=O)NCCc1ccc(O)c(O)c1 [N-Oleoyl Dopamine],scaled lipid accumulation score,[6],inactive: ≤ 0
O=Cc1cccc2[nH]ccc12 [4-formyl Indole],scaled lipid accumulation score,[6],inactive: ≤ 0
CN(C)[C@@H]1C(O)=C(C(N)=O)C(=O)[C@@]2(O)C(O)=C3C(=O)c4c(O)ccc(Cl)c4[C@@](C)(O)[C@H]3C[C@@H]12 [Chlortetracycline hydrochloride],scaled lipid accumulation score,,inactive: ≤ 0
same,scaled lipid accumulation score,[1],inactive: ≤ 0
O=C1OC2(c3ccc(O)cc3Oc3cc(O)ccc32)c2ccccc21 [Fluorescein],scaled lipid accumulation score,library stock concentration: 6 mM,inactive: 0.02
CC(=O)OCC1=C(C(=O)O)N2C(=O)[C@@H](NC(=O)CSc3ccncc3)[C@H]2SC1 [Cephapirin sodium],scaled lipid accumulation score,library stock concentration: 4.5 mM,inactive: ≤ -0.001
same,scaled lipid accumulation score,[1],inactive: ≤ 0
